This is an account of results in the BET-seq Pho4 binding data (Le et al. 2018).

The list shows a part of the results. The energies were worked out here from pooled read counts, against the library average; single values are noisy.

The assay addresses T1, Pho4 (S. cerevisiae) (UniProt P07270).
T1 sequence: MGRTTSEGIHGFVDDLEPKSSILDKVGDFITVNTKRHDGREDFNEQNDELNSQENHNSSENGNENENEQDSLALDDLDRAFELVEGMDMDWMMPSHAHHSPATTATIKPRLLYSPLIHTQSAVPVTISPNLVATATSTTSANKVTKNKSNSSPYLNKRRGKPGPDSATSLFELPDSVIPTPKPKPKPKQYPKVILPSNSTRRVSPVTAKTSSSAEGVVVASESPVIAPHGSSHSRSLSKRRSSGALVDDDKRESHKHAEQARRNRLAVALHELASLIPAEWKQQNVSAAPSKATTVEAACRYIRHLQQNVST
Put plainly: relative binding free energy (BET-seq); higher = weaker binding. Conditions: reference: library average.
Regarding AATGTCACGTGGTGGT, the “relative binding free energy” value was found to be 0.09 kcal/mol.
The value for GTGTACACGTGGAAAT was 0.22 kcal/mol.
The value for AGTGTCACGTGATGAA was 0.16 kcal/mol.
The value for AACGGCACGTGGTGAT was -0.18 kcal/mol.
With GTATACACGTGCAGGT, the “relative binding free energy” value came out at 0.02 kcal/mol.
The value for TTGATCACGTGCGATG was 0.14 kcal/mol.
Consider CGTTTCACGTGTTGCG, for which the “relative binding free energy” value came out at 0.18 kcal/mol.
Turning to TAATTCACGTGTGAGC, the “relative binding free energy” value came to 0.35 kcal/mol.
The value for TTCTCCACGTGTTGTT was 0.04 kcal/mol; that for TAAGCCACGTGGGTTG was -0.27 kcal/mol.
In the case of CTCAGCACGTGGAGGT it was 0.01 kcal/mol.
For the sequence GTATGCACGTGTTGAT, the “relative binding free energy” value is -0.01 kcal/mol.
The value for ATAAGCACGTGCTGGA was 0 kcal/mol.
In the case of CCGGTCACGTGTGTGG it was 0.05 kcal/mol; in that of TTGGGCACGTGGAGCG, -0.09 kcal/mol; in that of TTGGCCACGTGCTGTG, -0.13 kcal/mol.
Regarding TGGGCCACGTGTAATG, the “relative binding free energy” value amounted to 0.1 kcal/mol.
The value for TGATGCACGTGGTTGC was -0.03 kcal/mol.
The value for AAGTGCACGTGCGTGG was -0.11 kcal/mol; that for CGGTTCACGTGGATAG was 0.44 kcal/mol.
In the case of TGACTCACGTGAAGGT it was 0.28 kcal/mol; in that of AACGTCACGTGAGGGG, 0.18 kcal/mol.
Regarding TTAGTCACGTGTATCG, the “relative binding free energy” value is 0.21 kcal/mol.
The value for AGGGGCACGTGCAAAG was -0.14 kcal/mol; that for TTGACCACGTGGTTAA was 0.05 kcal/mol; that for TTTTGCACGTGGCCTT was -0.09 kcal/mol.
The value for GGGGACACGTGTGTAC was 0.21 kcal/mol; that for TGGCACACGTGGAGTT was 0.14 kcal/mol.
The value for ATGGCCACGTGGTGCG was -0.11 kcal/mol; that for TTATGCACGTGTTTCA was -0.12 kcal/mol; that for TGGATCACGTGCTGTG was 0.14 kcal/mol.
Take GTCATCACGTGGTTAT: the “relative binding free energy” value worked out at 0.12 kcal/mol.
As for AGTTTCACGTGTCTCT, the “relative binding free energy” value came to 0.21 kcal/mol.
In the case of AATTGCACGTGGGATA it was -0.03 kcal/mol; in that of TGTGTCACGTGCAGGA, 0.06 kcal/mol; in that of ATGGACACGTGGGGGC, -0.1 kcal/mol.
The value for GCATACACGTGTTGTG was -0.15 kcal/mol; that for AGATTCACGTGTGTAT was 0.24 kcal/mol.
The value for GTGTACACGTGCGGTC was 0.15 kcal/mol.
As to CATTTCACGTGTCGGT, the “relative binding free energy” value turned out to be 0.18 kcal/mol.
In the case of ACGGTCACGTGGGTAT it was 0 kcal/mol.
The value for ATTGTCACGTGGTGAA was 0.15 kcal/mol; that for TTGGGCACGTGTGACG was 0.04 kcal/mol; that for GCGGGCACGTGGCGGT was -0.23 kcal/mol.
In the case of TAGGTCACGTGGCTTG it was -0.02 kcal/mol; in that of ATTGACACGTGTTGTT, -0.04 kcal/mol; in that of GATAACACGTGTTGGA, 0.08 kcal/mol.
On to GCTGTCACGTGTAATT, for which the “relative binding free energy” value came out at 0.32 kcal/mol.
As to TTCCGCACGTGTGGGT, the “relative binding free energy” value is -0.07 kcal/mol.
The value for TCGTTCACGTGAATAG was 0.46 kcal/mol; that for GTAGACACGTGGGCTG was -0.27 kcal/mol; that for TAGTGCACGTGTTTCA was -0.06 kcal/mol.
The value for TTGGGCACGTGGGCTA was -0.15 kcal/mol; that for ATTCACACGTGGTTGG was 0.06 kcal/mol.
The value for GGTTTCACGTGCGTTC was 0.13 kcal/mol; that for TTGCTCACGTGTGCTG was 0.25 kcal/mol.
Turning to GCGGGCACGTGGATGG, the “relative binding free energy” value came to 0.01 kcal/mol.
The value for TATGGCACGTGATGGA was -0.07 kcal/mol; that for TGGTGCACGTGGAATT was -0.01 kcal/mol.
In the case of GGTATCACGTGGTCAT it was 0.35 kcal/mol; in that of ATATACACGTGAGATG, 0.33 kcal/mol; in that of TTAGTCACGTGACGGT, 0.11 kcal/mol.
Take TGGTTCACGTGATTGG: the “relative binding free energy” value worked out at 0.54 kcal/mol.
The value for GCTGTCACGTGGGTTT was 0.09 kcal/mol; that for TGTGGCACGTGGTCTA was -0.27 kcal/mol.
The value for GGTCTCACGTGTGGGC was 0.27 kcal/mol; that for TGCGACACGTGGTTGT was 0.08 kcal/mol.
Regarding GATGGCACGTGCGCGA, the “relative binding free energy” value is -0.06 kcal/mol.
In the case of CATTACACGTGGGCGG it was -0.06 kcal/mol.
For the sequence ATTGACACGTGATATG, the “relative binding free energy” value is 0.12 kcal/mol.
As to GCGTACACGTGTGTTG, the “relative binding free energy” value was 0.13 kcal/mol.
In the case of GATTACACGTGGAGAG it was 0.21 kcal/mol; in that of GGGTTCACGTGCTAAG, 0.29 kcal/mol; in that of CAGTCCACGTGGGGTT, -0.08 kcal/mol.
The value for TTTTGCACGTGTTAAA was 0.03 kcal/mol.
In the case of TGGGGCACGTGGATTG it was -0.03 kcal/mol; in that of CAGGTCACGTGGAATG, 0.29 kcal/mol.
As to CGTAACACGTGGGGGT, the “relative binding free energy” value is -0.2 kcal/mol.
In the case of TGTGTCACGTGATAGT it was 0.19 kcal/mol; in that of TGTGGCACGTGGTTTC, -0.21 kcal/mol; in that of TTATCCACGTGGGATG, -0.07 kcal/mol.
In the case of TAGTACACGTGTAGAG it was 0.06 kcal/mol; in that of GATTTCACGTGGTCAG, 0.27 kcal/mol; in that of CGTTTCACGTGTAGAT, 0.37 kcal/mol.
In the case of TGGCGCACGTGGCGTC it was -0.15 kcal/mol.
In the case of TTTTGCACGTGCGTAA, the “relative binding free energy” value was -0.15 kcal/mol.
The value for CGTCTCACGTGGGTTT was -0.03 kcal/mol.
In the case of CATTTCACGTGAGGCG it was 0.43 kcal/mol; in that of ATATGCACGTGCGTTG, -0.19 kcal/mol.
The value for TATAGCACGTGTGGAC was 0.14 kcal/mol; that for TTGGGCACGTGAATAC was 0.13 kcal/mol; that for GGACGCACGTGTCAGG was -0.01 kcal/mol.
With AGGATCACGTGTGCAG, the “relative binding free energy” value stood at 0.2 kcal/mol.
The value for TGTTGCACGTGCTGGG was -0.2 kcal/mol.
In the case of AACGGCACGTGCGGTG it was -0.14 kcal/mol; in that of ATTGTCACGTGTCGGA, -0.08 kcal/mol.
The value for ATAGGCACGTGATGGA was -0.14 kcal/mol.
Take GTGGTCACGTGTGCGT: the “relative binding free energy” value amounted to 0.05 kcal/mol.
In the case of ACGAGCACGTGGTCGG it was -0.07 kcal/mol.
Turning to GTTGACACGTGTTCAT, the “relative binding free energy” value was 0.03 kcal/mol.
The value for ATAGGCACGTGGGTAT was -0.26 kcal/mol; that for CTCGGCACGTGCTGTG was 0.01 kcal/mol; that for GATGTCACGTGTGTTG was 0.18 kcal/mol.
In the case of TACAGCACGTGAAGGT it was 0.15 kcal/mol; in that of GTATGCACGTGTAGCG, 0.09 kcal/mol; in that of AGTTGCACGTGATGCA, -0.07 kcal/mol.
The value for AGTTGCACGTGGGAGT was -0.08 kcal/mol; that for GGTACCACGTGAGGGA was 0.1 kcal/mol; that for TAGTTCACGTGCTGTT was 0.22 kcal/mol.
For GATTGCACGTGTGTAG, the “relative binding free energy” value was determined as 0 kcal/mol.
In the case of CAGGACACGTGGGGAT it was 0.02 kcal/mol; in that of ATAGACACGTGGGTCG, -0.03 kcal/mol; in that of CTATGCACGTGTGAGT, 0.09 kcal/mol.
In the case of TGGGTCACGTGTCTGT it was 0.2 kcal/mol; in that of ATATCCACGTGTGGTT, -0.02 kcal/mol.
